Test results taken from article PMC11790949, “A multiplex method for rapidly identifying viral protease inhibitors” (Molecular Systems Biology, 2025).

Legend:
[1] = test system: Bat-SV-CoVZC45-3CL; type: cell-based, Bat SL-CoVZC45
[2] = biological target: SARS-CoV-2-3CL (Severe acute respiratory syndrome coronavirus 2, UniProt P0DTD1); type: cell-based
[3] = biological target: HCoV-229E-3CL (Human coronavirus 229E, UniProt P0C6X1); type: cell-based
[4] = test system: BWCoV-SW1-3CL; type: cell-based, Beluga whale coronavirus SW1
[5] = biological target: Bat-CoV-HKU9-3CL (Bat coronavirus HKU9, UniProt P0C6W5); type: cell-based
[6] = biological target: Bat-CoV-HKU4-3CL (Bat coronavirus HKU4, UniProt P0C6W3); type: cell-based
[7] = biological target: HCoV-HKU1-3CL (Human coronavirus HKU1, UniProt P0C6X2); type: cell-based
[8] = biological target: HCoV-NL63-3CL (Human coronavirus NL63, UniProt P0C6X5); type: cell-based
[9] = biological target: MERS-CoV-3CL (Middle East respiratory syndrome-related coronavirus, UniProt K9N7C7); type: cell-based
[10] = biological target: HAV-3C (Human hepatitis A virus genotype IB, UniProt P08617); type: cell-based
[11] = biological target: HCoV-OC43-3CL (Human coronavirus OC43, UniProt P0C6X6); assay: Yeast dose-response liquid growth assay (individual model); type: cell-based; conditions: HCoV-OC43-3CL model
[12] = biological target: SARS-CoV-2 PLP (Severe acute respiratory syndrome coronavirus 2, UniProt P0DTD1); type: cell-based
[13] = biological target: HCoV-NL63-PLP2 (Human coronavirus NL63, UniProt P0C6X5); assay: Yeast dose-response liquid growth assay (individual model); type: cell-based
[14] = test system: POWV-NS2B-GS-NS3; type: cell-based, tick-borne Powassan virus
[15] = biological target: Bat-SL-CoVZC45-PLP (Bat SARS-like coronavirus, UniProt A0A2R3SV02); type: cell-based
[16] = biological target: MERS-CoV-PLP (Middle East respiratory syndrome-related coronavirus, UniProt K9N7C7); type: cell-based

`NC(N)=NC(=S)Nc1ccc(Cl)cc1` [NSC403374] was tested. Which Max relative growth [1] did it give?
The Max relative growth was 1.334.

What about the Max relative growth [2] of the same molecule?
The Max relative growth was 1.288.

Which Max relative growth [3] does the source give for `CCc1cc(=O)oc2cc(OC(=O)c3ccco3)ccc12` [CB6728297] here?
Its Max relative growth is 2.144.

What about the Max relative growth [4] of the same molecule?
Its Max relative growth is 5.597.

And the Max relative growth [5]?
The Max relative growth was 3.522.

And the Max relative growth [1]?
The Max relative growth was 2.036.

And the Max relative growth [6]?
The Max relative growth was 1.746.

What about the Max relative growth [2] of the same molecule?
The Max relative growth was 4.207.

What about the Max relative growth [7] of the same molecule?
Its Max relative growth is 6.457.

What about the Max relative growth [8] of the same molecule?
The Max relative growth was 3.578.

What about the Max relative growth [9] of the same molecule?
The Max relative growth was 1.327.

And the Max relative growth [10]?
Its Max relative growth is 3.798.

For `CN(C(=O)c1ccncc1)c1ccccc1` [NSC204976], which “Inhibitor / Validation (true or false inhibitor in individual yeast model)” value (shortened to “Inhibitor / Validation”) [9] is on record?
The value was “FALSE”.

What about the Max relative growth [9] of the same molecule?
Its Max relative growth is 0.8942.

`N#Cc1ccc(NC2c3ccccc3CC2O)cc1` (stereo not drawn) [NSC69421] was tested. Which “Inhibitor / Validation” value [11] did it give?
The value was “FALSE”.

Which “Inhibitor / Validation” value [6] does the source give for `S=c1[nH]c2ccccc2n2cccc12` [NSC246415] here?
The value was “FALSE”.

And the Max relative growth [6]?
Its Max relative growth is 0.5477.

What does the source list for `CCOC(=O)C(=O)Cc1nc2ccccc2s1` [NSC38490]?
Inhibitor / Validation (true or false inhibitor in individual yeast model) [9]: FALSE; Max relative growth [9]: 0.1943

How did the “Inhibitor / Validation” value [12] turn out when `CNC(=O)Oc1c(C)[nH]ccc1=O` [NSC287495] was run?
Its value is “FALSE”.

What about the “Inhibitor / Validation” value [13] of the same molecule?
The value was “FALSE”.

`O=C(Oc1ccc2ccc(=O)oc2c1)c1ccco1` [CB6778425] was tested. Which Max relative growth [3] did it give?
Its Max relative growth is 3.883.

And the Max relative growth [4]?
The Max relative growth was 4.474.

What about the Max relative growth [5] of the same molecule?
Its Max relative growth is 4.722.

And the Max relative growth [1]?
The Max relative growth was 2.0048.

What about the Max relative growth [6] of the same molecule?
Its Max relative growth is 2.045.

And the Max relative growth [2]?
The Max relative growth was 3.098.

What about the Max relative growth [7] of the same molecule?
Its Max relative growth is 5.701.

What about the Max relative growth [8] of the same molecule?
Its Max relative growth is 1.41.

What about the Max relative growth [9] of the same molecule?
Its Max relative growth is 1.396.

What about the Max relative growth [10] of the same molecule?
Its Max relative growth is 1.965.

`Cc1cc2c(cc1C)N(C(=O)CCl)CC(=O)N2` [NSC138389] was tested. Which “Inhibitor / Validation” value [14] did it give?
The value was “FALSE”.

What about the Max relative growth [14] of the same molecule?
Its Max relative growth is 0.6792.

What about the Max relative growth [15] of the same molecule?
The Max relative growth was 1.762.

What about the “Inhibitor / Validation” value [1] of the same molecule?
Its value is “FALSE”.

What about the Max relative growth [1] of the same molecule?
The Max relative growth was 0.3635.

And the “Inhibitor / Validation” value [6]?
Its value is “FALSE”.

And the Max relative growth [6]?
Its Max relative growth is 0.5541.

And the “Inhibitor / Validation” value [2]?
The value was “FALSE”.

And the Max relative growth [2]?
Its Max relative growth is 0.3944.

For `c1ccc2c(c1)-c1cccc3cncc-2c13` [NSC60419], which “Inhibitor / Validation” value [11] is on record?
The value was “FALSE”.

What does the source list for `O=C(Oc1ccc2ccc(=O)oc2c1)c1cccs1` [CB6762077]?
Max relative growth [3]: 1.739; Max relative growth [5]: 2.732; Max relative growth [1]: 1.8704; Max relative growth [6]: 1.561; Max relative growth [2]: 2.949

What does the source list for `CCOC(=O)c1c(NC(=S)NC)sc2c1CCCC2` [NSC280492]?
Inhibitor / Validation (true or false inhibitor in individual yeast model) [6]: FALSE; Max relative growth [6]: 1.034

How did the “Inhibitor / Validation” value [11] turn out when `CCOC(=O)Nc1ccc2nc(-c3cscn3)[nH]c2c1` [NSC299514] was run?
Its value is “FALSE”.

What does the source list for `Cc1cc(N(C)C)ccc1N=Nc1ccc2ncccc2c1` [NSC680516]?
Inhibitor / Validation (true or false inhibitor in individual yeast model) [16]: FALSE; Max relative growth [16]: 0.6371; Inhibitor / Validation (true or false inhibitor in individual yeast model) [13]: FALSE

With `CCSc1nc(=S)cc(C)[nH]1` [NSC67307] as the molecule, how does the “Inhibitor / Validation” value [9] read?
Its value is “FALSE”.

What about the Max relative growth [9] of the same molecule?
The Max relative growth was 0.2492.
